Out of some 230,000 compounds screened, about 1,500 (0.65%) were called active. This list was built around the results that the source calls inconclusive (neither active nor inactive); the mix of calls is not that of the screen. Calls come from the whole dose curve; as a rule, active = well fitted inhibition curve with a large enough effect; inconclusive = small, poorly fitted or top-dose-only effect; inactive = no such curve, though single readings can be large or run the other way. Potencies beside an inconclusive call are fits to weak or partial responses and may not hold up.
These compounds were tested against Lethal(3)malignant brain tumor-like protein 1 (Homo sapiens) (UniProt Q9Y468) (assay: qHTS Assay for the Inhibitors of L3MBTL1). Conditions: AlphaScreen L3MBTL1–H3K9me1 peptide binding; series mostly up to 57.1 µM.
Excerpt: The histone code is comprised of many post-translational modifications that occur mainly in histone tail peptides. The identity and location of these marks are read by a variety of histone binding proteins that are emerging as important regulators of cellular differentiation and development and are increasingly being implicated in numerous disease states. Small molecule probes that disrupt the interaction between histone binding proteins and chromatin would enable a systematic chemical biology study of proteins that read the histone code and could potentially reveal new targets for drug discovery. However, no such small molecules are known. This dearth of quality molecular probes can largely be attributed to the novelty of the target class and the lack of screening assays. This proposal details the development of the first high-throughput screening assay for the discovery of inhibitors of methyl-lysine binding proteins and how it can be be used to initiate a full-scale discovery effort for antagonists of histone binding proteins. […]
To each well, 2 uL of L3MBTL1 protein (final 50 nM) and 1 uL biotinylated histone peptide monomethylated at Lys9 [b-AHA-H3(1-15)K9me1] […] Microplates were then be read on an EnVision multilabel plate reader using the 1,536 plate HTS AlphaScreen aperture (excitation time 80 ms, measurement time 240 ms).
Note: nearly all actives have a fitted effect of over 60% in size.
Potency is the fitted concentration of half-maximal effect; tags give direction and shape of the fitted curve.

Chain of UniProt Q9Y468 (Q9Y468 whole entry, looked up): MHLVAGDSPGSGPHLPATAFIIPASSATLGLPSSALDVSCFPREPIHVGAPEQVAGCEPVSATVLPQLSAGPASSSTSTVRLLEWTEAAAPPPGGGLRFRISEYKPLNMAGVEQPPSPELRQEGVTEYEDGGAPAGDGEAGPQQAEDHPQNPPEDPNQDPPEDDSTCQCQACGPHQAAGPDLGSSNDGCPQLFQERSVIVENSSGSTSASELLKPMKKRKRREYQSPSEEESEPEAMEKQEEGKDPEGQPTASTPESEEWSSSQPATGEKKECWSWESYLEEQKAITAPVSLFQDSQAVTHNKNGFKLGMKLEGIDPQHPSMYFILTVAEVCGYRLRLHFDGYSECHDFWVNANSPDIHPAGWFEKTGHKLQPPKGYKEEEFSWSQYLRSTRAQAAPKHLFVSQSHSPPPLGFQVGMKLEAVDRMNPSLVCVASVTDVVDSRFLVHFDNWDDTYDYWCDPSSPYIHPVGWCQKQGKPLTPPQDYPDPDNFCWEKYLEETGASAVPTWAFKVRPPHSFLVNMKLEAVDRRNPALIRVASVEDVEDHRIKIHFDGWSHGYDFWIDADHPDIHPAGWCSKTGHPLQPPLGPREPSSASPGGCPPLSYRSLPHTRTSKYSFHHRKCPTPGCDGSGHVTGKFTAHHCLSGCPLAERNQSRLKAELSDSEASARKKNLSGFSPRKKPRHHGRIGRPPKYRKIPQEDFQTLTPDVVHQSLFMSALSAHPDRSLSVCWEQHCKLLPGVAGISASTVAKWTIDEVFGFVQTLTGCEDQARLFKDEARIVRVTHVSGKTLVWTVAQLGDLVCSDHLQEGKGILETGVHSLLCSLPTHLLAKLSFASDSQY

Structure (SMILES) | Potency
COc1cc(NS(=O)(=O)c2ccc(NC(=S)NC(=O)c3sc4ccccc4c3Cl)cc2)nc(OC)n1 | inconclusive: 6.31 µM [inhibitor, single point]

From PubChem BioAssay AID485360 (National Center for Advancing Translational Sciences (NCATS), 2010)
